Reference: the supplement of paper PMC8728848
The other results are listed elsewhere or left out.

Columns and labels:
Assay in all cases: glycan array binding signal (z-score within array); higher = stronger binding
Settings in all cases: glycan notation: IUPAC condensed, linker removed
[1] = target: GlcNAc(b1-3)Gal(b1-4)GlcNAc
In short: (§1)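 Glycan array binding is given as a within-array Z-score, which can be read as non-binding when negative. The arrays, 3228 of them, came from the Consortium for Functional Glycomics database and were retained only where the protein sequence was available. Z-scores were averaged across arrays of the same protein sequence at different concentrations or buffers and across linkers.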

[2] = target: GlcNAc(b1-3)Gal(b1-4)GlcNAc(b1-3)Gal(b1-4)GlcNAc
In short: as §1

GlcNAc(b1-3)GalNAc = target: GlcNAc(b1-3)GalNAc
In short: as §1

[3] = target: GlcNAc(b1-3)[GlcNAc(b1-6)]Gal(b1-4)GlcNAc
In short: as §1

[4] = target: GlcNAc(b1-3)[GlcNAc(b1-6)]GalNAc
In short: as §1

[5] = target: GlcNAc(b1-3)[GlcNAc(b1-6)]GlcNAc(b1-4)GlcNAc
In short: as §1

[6] = target: GlcNAc(b1-4)Gal(b1-4)GlcNAc
In short: as §1

[7] = target: GlcNAc(b1-4)GlcNAc(b1-4)GlcNAc
In short: as §1

[8] = target: GlcNAc(b1-4)GlcNAc(b1-4)GlcNAc(b1-4)GlcNAc(b1-4)GlcNAc
In short: as §1

[9] = target: GlcNAc(b1-4)GlcNAc(b1-4)GlcNAc(b1-4)GlcNAc(b1-4)GlcNAc(b1-4)GlcNAc
In short: as §1

[10] = target: GlcNAc(b1-4)[GlcNAc(b1-6)]GalNAc
In short: as §1

[11] = target: GlcNAc(b1-6)Gal(b1-4)GlcNAc
In short: as §1

GlcNAc(b1-6)GalNAc = target: GlcNAc(b1-6)GalNAc
In short: as §1

Kdn(a2-3)Gal(b1-3)GlcNAc = target: Kdn(a2-3)Gal(b1-3)GlcNAc
In short: as §1

Kdn(a2-3)Gal(b1-4)GlcNAc = target: Kdn(a2-3)Gal(b1-4)GlcNAc
In short: as §1

[12] = target: Man(a1-2)Man(a1-2)Man(a1-3)Man
In short: as §1

[13] = target: Man(a1-2)Man(a1-2)Man(a1-6)[Man(a1-3)]Man
In short: as §1

Man(a1-2)Man(a1-3)Man = target: Man(a1-2)Man(a1-3)Man
In short: as §1

[14] = target: Man(a1-2)Man(a1-3)[Man(a1-2)Man(a1-6)]Man
In short: as §1

[15] = target: Man(a1-2)Man(a1-3)[Man(a1-2)Man(a1-6)]Man(a1-6)[Man(a1-2)Man(a1-2)Man(a1-3)]Man(b1-4)GlcNAc(b1-4)GlcNAc
In short: as §1

[16] = target: Man(a1-2)Man(a1-3)[Man(a1-6)]Man(a1-6)[Man(a1-2)Man(a1-3)]Man(b1-4)GlcNAc(b1-4)GlcNAc
In short: as §1

[17] = target: Man(a1-2)Man(a1-6)[Man(a1-3)]Man(a1-6)[Man(a1-2)Man(a1-2)Man(a1-3)]Man(b1-4)GlcNAc(b1-4)GlcNAc
In short: as §1

Man(a1-3)[Man(a1-6)]Man = target: Man(a1-3)[Man(a1-6)]Man
In short: as §1

[18] = target: Man(a1-3)[Man(a1-6)]Man(a1-6)[Man(a1-2)Man(a1-3)]Man(b1-4)GlcNAc(b1-4)GlcNAc
In short: as §1

[19] = target: Man(a1-3)[Man(a1-6)]Man(a1-6)[Man(a1-3)]Man(b1-4)GlcNAc(b1-4)GlcNAc
In short: as §1

[20] = target: Man(a1-3)[Man(a1-6)]Man(b1-4)GlcNAc(b1-4)GlcNAc
In short: as §1

Man(b1-4)GlcNAc = target: Man(b1-4)GlcNAc
In short: as §1

Neu5Ac(a2-3)Gal = target: Neu5Ac(a2-3)Gal
In short: as §1

[21] = target: Neu5Ac(a2-3)Gal(b1-3)GalNAc
In short: as §1

[22] = target: Neu5Ac(a2-3)Gal(b1-3)GalNAc(b1-3)Gal(a1-4)Gal(b1-4)Glc
In short: as §1

[23] = target: Neu5Ac(a2-3)Gal(b1-3)GalNAc(b1-3)Gal(b1-4)GlcNAc
In short: as §1

[24] = target: Neu5Ac(a2-3)Gal(b1-3)GalNAc(b1-4)[Neu5Ac(a2-3)]Gal(b1-4)Glc
In short: as §1

[25] = target: Neu5Ac(a2-3)Gal(b1-3)GalNAc6S
In short: as §1

[26] = target: Neu5Ac(a2-3)Gal(b1-3)GlcNAc
In short: as §1

[27] = target: Neu5Ac(a2-3)Gal(b1-3)GlcNAc6S
In short: as §1

[28] = target: Neu5Ac(a2-3)Gal(b1-3)[Fuc(a1-4)]GlcNAc
In short: as §1

[29] = target: Neu5Ac(a2-3)Gal(b1-3)[Fuc(a1-4)]GlcNAc(b1-3)Gal(b1-4)[Fuc(a1-3)]GlcNAc
In short: as §1

[30] = target: Neu5Ac(a2-3)Gal(b1-3)[Neu5Ac(a2-3)Gal(b1-4)]GlcNAc
In short: as §1

B1: CLL-1 (Homo sapiens) (protein)
chain: MWIDFFTYSSMSEEVTYADLQFQNSSEMEKIPEIGKFGEKAPPAPSHVWRPAALFLTLLCLLLLIGLGVLASMFHVTLKIEMKKMNKLQNISEELQRNISLQLMSNMNISNKIRNLSTTLQTIATKLCRELYSKEQEHKCKPCPRRWIWHKDSCYFLSDDVQTWQESKMACAAQNASLLKINNKNALEFIKSQSRSYDYWLGLSPEEDSTRGMRVDNIINSSAWVIRNAPDLNNMYCGYINRLYVQYYHCTYKKRMICEKMANPVQLGSTYFREA
glycan array binding signal (z-score) [1]: -0.178 | glycan array binding signal (z-score) [2]: -0.274 | glycan array binding signal (z-score) (GlcNAc(b1-3)GalNAc): -0.228 | glycan array binding signal (z-score) [3]: -0.164 | glycan array binding signal (z-score) [4]: -0.19 | glycan array binding signal (z-score) [5]: -0.278 | glycan array binding signal (z-score) [6]: -0.228 | glycan array binding signal (z-score) [7]: -0.145 | glycan array binding signal (z-score) [8]: -0.221 | glycan array binding signal (z-score) [9]: -0.243 | glycan array binding signal (z-score) [10]: -0.247 | glycan array binding signal (z-score) [11]: -0.256 | glycan array binding signal (z-score) (GlcNAc(b1-6)GalNAc): -0.211 | glycan array binding signal (z-score) (Kdn(a2-3)Gal(b1-3)GlcNAc): 0.154 | glycan array binding signal (z-score) (Kdn(a2-3)Gal(b1-4)GlcNAc): -0.099 | glycan array binding signal (z-score) [12]: 0.01 | glycan array binding signal (z-score) [13]: -0.185 | glycan array binding signal (z-score) (Man(a1-2)Man(a1-3)Man): -0.156 | glycan array binding signal (z-score) [14]: -0.22 | glycan array binding signal (z-score) [15]: -0.173 | glycan array binding signal (z-score) [16]: -0.048 | glycan array binding signal (z-score) [17]: -0.179 | glycan array binding signal (z-score) (Man(a1-3)[Man(a1-6)]Man): -0.245 | glycan array binding signal (z-score) [18]: -0.104 | glycan array binding signal (z-score) [19]: -0.209 | glycan array binding signal (z-score) [20]: -0.076 | glycan array binding signal (z-score) (Man(b1-4)GlcNAc): -0.227 | glycan array binding signal (z-score) (Neu5Ac(a2-3)Gal): -0.285 | glycan array binding signal (z-score) [21]: -0.176 | glycan array binding signal (z-score) [22]: -0.108 | glycan array binding signal (z-score) [23]: -0.232 | glycan array binding signal (z-score) [24]: -0.177 | glycan array binding signal (z-score) [25]: -0.072 | glycan array binding signal (z-score) [26]: -0.166 | glycan array binding signal (z-score) [27]: -0.109 | glycan array binding signal (z-score) [28]: 1.22 | glycan array binding signal (z-score) [29]: -0.143 | glycan array binding signal (z-score) [30]: -0.187
